For the experiment, the system named is HL-60 (TB) leukemia cells. The experiment is described as follows: cells. The conditions noted are these: Homo sapiens.

For `COc1cc2c(c(OC)c1OC)-c1ccc(OC)c(=O)cc1[C@@H](NC(C)=O)CC2` [Colchicine, reference compound], the activity at 100 µM (HL-60, read-out: Percent Growth, log10 conc -4.0) was -10%. Besides, the activity at 10 µM (HL-60, read-out: Percent Growth, log10 conc -5.0) was -24%. Moreover, the activity at 1 µM (HL-60, read-out: Percent Growth, log10 conc -6.0) was -22%. In addition, for the setting “HL-60, read-out: Percent Growth, log10 conc -7.0”, the activity at 0.1 µM was -5%. For the same molecule, the activity at 0.01 µM (HL-60, read-out: Percent Growth, log10 conc -8.0) stood at 57%.

The values above are taken from US5760092A, “Allocolchinones and uses thereof” (Brandeis University, priority 1996, dated 1998).
